Results: PubChem BioAssay AID1240 (Sanford-Burnham Center for Chemical Genomics, 2008)
About 800 (1.6%) of roughly 50,000 compounds showed an effect of 50% or more. The list shows a part of the results.

Biological target: Bcl-2-like protein 10 (Homo sapiens) (UniProt Q9HD36)
Assay: Phenotype converters, Bcl-B/TR3 peptide binding displacement, primary biochemical FP (AID 1240);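 also: 0% = Bcl-B with tracer peptide and DMSO and 100% = tracer peptide lacking Bcl-B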
Conditions: GST-Bcl-B / FITC-TR3 peptide fluorescence polarization; stronger effect = higher value; compound at 3.75 mg/L

Chain of UniProt Q9HD36 (Q9HD36 whole entry, looked up): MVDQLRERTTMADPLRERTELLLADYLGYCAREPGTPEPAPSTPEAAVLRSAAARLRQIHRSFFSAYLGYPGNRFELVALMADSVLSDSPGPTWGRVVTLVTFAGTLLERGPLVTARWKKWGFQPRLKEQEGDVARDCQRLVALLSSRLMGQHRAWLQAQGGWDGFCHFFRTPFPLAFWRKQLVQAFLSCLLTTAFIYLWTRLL

Compared with `Cc1ccc(C(=O)Nc2cccc(C(=O)O)c2)cc1S(=O)(=O)N1CCOCC1`, `O=C(Nc1ccc(N2CCOCC2)cc1)c1cc2ccccc2o1` is higher in displacement: 1% for the first, 10.3% for the second.

Going from `COc1ccc(/C=C2/SC(=O)N(c3ccccc3)C2=O)c(OC)c1` to `Cc1cccc(N2C(=O)CC(Sc3nc4ccccc4s3)C2=O)c1` (stereo unspecified), the displacement falls from 5.9% to 3.6%.

Compared with `C=CCOC(=O)C1=C(C)NC(C)=C(C(=O)OCC=C)C1c1cccs1`, `COC(=O)C1=C(C)NC(=S)NC1c1cccc(Cl)c1` (stereo unspecified) is lower in displacement: 7.8% for the first, -15% for the second.

First: CC(=O)Nc1ccc(S(=O)(=O)Nc2cccc(-c3nc4ccccc4o3)c2)cc1
Second: O=C(Nc1ccc2oc(-c3ccccc3)nc2c1)c1ccc(Br)o1
The displacement of the first is lower: -5.1% for the first, -2.5% for the second.

Compared with `Cn1c(=O)c2[nH]c(N/N=C(/C#N)C(N)=O)nc2n(C)c1=O`, `COc1ccc(N/C=C(\C#N)C(N)=O)cc1` is higher in displacement: 7.6% for the first, 9% for the second.

Compared with `O=c1c2cc([N+](=O)[O-])ccc2[nH]c2c1[nH]c1ccccc12`, `Cc1ccc(-c2oc3ccccc3c(=O)c2O)cc1` is higher in displacement: -9.8% for the first, -5.6% for the second.

Compared with `COc1ccc2c(c1OC)C(=O)OC2CC(=O)c1cc(Cl)ccc1O` (stereo unspecified), `COc1ccc(C2C(C(C)=O)=C(O)C(=O)N2c2nc3ccccc3s2)cc1OC` (stereo unspecified) is lower in displacement: -6.9% for the first, -10.4% for the second.

Compared with `CC(NC(=O)CSc1ccccn1)c1ccccc1` (stereo unspecified), `O=C(O)c1ccccc1Nc1nc2nc3ccccc3c(=O)n2cc1Br` is higher in displacement: -10.3% for the first, -4.6% for the second.

First: COc1ccccc1C(=O)N1CCN(Cc2ccc3ccccc3c2)CC1
Second: COc1cc(C2CC(C(F)(F)F)n3ncc(C(=O)N4CCN(Cc5ccccc5)CC4)c3N2)cc(OC)c1OC (stereo unspecified)
The displacement of the first is lower: 9.7% for the first, 10.5% for the second.

First: Cc1ccc(N2C(=O)/C(=C/c3ccc(O)cc3)C(=O)NC2=S)cc1
Second: COC(=O)C1=C(C)N(c2ccc(F)cc2)C(=O)/C1=C\c1ccc([N+](=O)[O-])cc1
The displacement of the first is higher: 10.6% for the first, -7.3% for the second.

Compared with `Cc1ccc(S(=O)(=O)/N=C2\C=CC(=O)C=C2Cl)cc1`, `Cc1ccc(-c2cc(C(=O)N/N=C/c3ccc(Cl)cc3)[nH]n2)cc1` is lower in displacement: 47.3% for the first, -14.2% for the second.

First: CCC(=NCCc1ccccc1)C1=C(O)CCC1=O
Second: CC1=CC(C)C2(CO)COC(c3ccccc3)C1C2C (stereo unspecified)
The displacement of the first is lower: 1.4% for the first, 6.7% for the second.

First: O=C(c1ccc(Br)cc1)N1CCC(c2ccccc2)C1 (stereo unspecified)
Second: COc1ccc(/C(N)=N/OC(=O)c2ccc(C)c([N+](=O)[O-])c2)cc1
The displacement of the first is lower: -5% for the first, -1.8% for the second.

First: COC(=O)c1cc(-c2ccc(/C=N/n3cnnc3)o2)ccc1Cl
Second: CCc1cccc(NC(=O)c2cnccn2)c1
The displacement of the first is lower: -15.3% for the first, -3.2% for the second.

First: O=C(CCCO)c1ccc2c(c1)OCCO2
Second: CC(=O)C(C)Oc1ccc2c3c(c(=O)oc2c1)CCCC3 (stereo unspecified)
The displacement of the first is higher: 7.8% for the first, -1.9% for the second.

Work on `CCCCCc1ccc(-c2ccc(OC(F)F)cc2)nc1` yielded a displacement of -0.8%.
